Data published in the BET-seq Pho4 binding data (Le et al. 2018).
The list shows a part of the results. The energies were worked out here from pooled read counts, against the library average; single values are noisy.

The sequences below were run against T1, Pho4 (S. cerevisiae) (UniProt P07270) (assay: relative binding free energy (BET-seq); higher = weaker binding). Details: reference: library average.
T1 sequence: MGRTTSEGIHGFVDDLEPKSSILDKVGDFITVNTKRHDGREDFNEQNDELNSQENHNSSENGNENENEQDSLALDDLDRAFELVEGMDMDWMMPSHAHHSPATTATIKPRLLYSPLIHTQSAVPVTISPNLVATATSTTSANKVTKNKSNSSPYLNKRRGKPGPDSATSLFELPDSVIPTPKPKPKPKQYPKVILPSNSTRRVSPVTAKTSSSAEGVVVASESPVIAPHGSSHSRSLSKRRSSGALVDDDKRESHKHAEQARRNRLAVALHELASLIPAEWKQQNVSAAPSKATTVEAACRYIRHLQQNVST

Sequence	relative binding free energy
TTGGACACGTGAGTAG	0.22 kcal/mol
TTATACACGTGTGTTG	0.05 kcal/mol
TATGTCACGTGTGCTA	0.01 kcal/mol
GTTTTCACGTGTACGA	0.31 kcal/mol
AGGTTCACGTGTATGA	0.36 kcal/mol
TAAGACACGTGTGGGG	0.02 kcal/mol
TGATGCACGTGTTTTT	0.08 kcal/mol
ATGTACACGTGGCGGT	0.04 kcal/mol
GTAGTCACGTGAGATA	0.31 kcal/mol
AGCTTCACGTGTGGTA	0.3 kcal/mol
TTCTTCACGTGGGTCG	0.14 kcal/mol
ATTATCACGTGAGGTC	0.24 kcal/mol
GTAAGCACGTGAAGAG	0.31 kcal/mol
TGCATCACGTGGGTAA	0 kcal/mol
CTGGGCACGTGGGGTA	-0.17 kcal/mol
AGTGACACGTGGTTGG	-0.18 kcal/mol
TGTGCCACGTGTGATT	-0.01 kcal/mol
TGGTGCACGTGATCTA	0.09 kcal/mol
TGGAACACGTGGGGCG	-0.07 kcal/mol
TGAAGCACGTGGAAAG	0.12 kcal/mol
TGCTTCACGTGGGTAA	0 kcal/mol
AGGTCCACGTGAGTGG	0.16 kcal/mol
GAAACCACGTGGGGTG	-0.15 kcal/mol

Sequence	relative binding free energy
TGAGTCACGTGAGTTC	0.35 kcal/mol
CTCGTCACGTGGTGTG	-0.1 kcal/mol
TCCGGCACGTGGTTGG	-0.16 kcal/mol
TTGCTCACGTGAAGGG	0.48 kcal/mol
TGATGCACGTGTAAGA	0.09 kcal/mol
GTTCGCACGTGTAGCG	0.04 kcal/mol
GTCGTCACGTGTGTGG	0.18 kcal/mol
CCGGTCACGTGTCGGT	0.16 kcal/mol
CATGGCACGTGATTGT	-0.13 kcal/mol
AGTAACACGTGTATGA	0 kcal/mol
TGGTGCACGTGGGGCT	-0.1 kcal/mol
AGTAGCACGTGGTAGG	-0.12 kcal/mol
GTGTTCACGTGGTGTC	0.3 kcal/mol
ATTGACACGTGTGGCT	0 kcal/mol
AAGGTCACGTGGATGG	0.08 kcal/mol
AGGACCACGTGTGTTT	0.06 kcal/mol
AGGAGCACGTGTTTAG	-0.2 kcal/mol
CAGTACACGTGGTGTT	0.07 kcal/mol
GGATTCACGTGGCTTG	0.21 kcal/mol
AAGGTCACGTGATTTC	0.29 kcal/mol
TGTTTCACGTGCAAAG	0.26 kcal/mol
TGTTTCACGTGGGGAT	0.23 kcal/mol
ATGTCCACGTGGATGT	0.02 kcal/mol

Sequence	relative binding free energy
TGTCGCACGTGGGGGG	-0.14 kcal/mol
AAGTACACGTGAGTGG	0.3 kcal/mol
ACTTTCACGTGTGTAG	0.19 kcal/mol
TACGGCACGTGTTGAG	0.05 kcal/mol
ACAGTCACGTGAGTGG	0.23 kcal/mol
TCTATCACGTGTAAGT	0.17 kcal/mol
GGACTCACGTGGTGGT	0.19 kcal/mol
ATTTCCACGTGTAAGG	0.18 kcal/mol
TATTTCACGTGATTTC	0.33 kcal/mol
CGTGACACGTGGTGGG	-0.06 kcal/mol
AAGGACACGTGTTATG	0.11 kcal/mol
AGGATCACGTGAAGTG	0.36 kcal/mol
TCTGTCACGTGGGGAG	-0.07 kcal/mol
TATTTCACGTGCAGGG	0.23 kcal/mol
AGGGCCACGTGGGTCT	-0.2 kcal/mol
GTGTGCACGTGGTCGC	-0.23 kcal/mol
TAGGACACGTGTGCGT	0 kcal/mol
TATGCCACGTGTTTGA	-0.08 kcal/mol
GAAGTCACGTGGTGGT	0.21 kcal/mol
ATTTTCACGTGTGCAA	0.23 kcal/mol
ATAAGCACGTGGGTGC	-0.29 kcal/mol
TCCTGCACGTGGGAGG	-0.13 kcal/mol
GGGGTCACGTGAGGGG	0.4 kcal/mol

Sequence	relative binding free energy
CGATGCACGTGTATTT	0.05 kcal/mol
TCAGGCACGTGATAGG	-0.08 kcal/mol
TCGGTCACGTGCTGGG	0 kcal/mol
AGTAACACGTGCGTTG	-0.15 kcal/mol
TGGAGCACGTGTGGCA	-0.12 kcal/mol
GTAGTCACGTGACTGT	0.18 kcal/mol
AGACGCACGTGGTGGT	-0.21 kcal/mol
CATTACACGTGTGTGG	0.03 kcal/mol
TACTGCACGTGATTTT	0.15 kcal/mol
TTAGTCACGTGTTGTG	0.15 kcal/mol
TGCCTCACGTGCGTGG	0.16 kcal/mol
AATGTCACGTGGAGGC	0.03 kcal/mol
GGCATCACGTGTTATT	0.19 kcal/mol
TATTTCACGTGTTATG	0.18 kcal/mol
ATGTTCACGTGAAGGC	0.47 kcal/mol
GGTACCACGTGTTTGA	0.11 kcal/mol
CTGATCACGTGTGTGA	0.09 kcal/mol
ATGTGCACGTGCCTGG	-0.15 kcal/mol
CGAGTCACGTGGGTAA	-0.03 kcal/mol
TATGACACGTGTGTTG	-0.03 kcal/mol
TGATGCACGTGGGGCG	-0.19 kcal/mol
TTGATCACGTGCCGGT	0.13 kcal/mol
TTGATCACGTGAGGTG	0.31 kcal/mol

Sequence	relative binding free energy
CTTTGCACGTGTCTGT	-0.12 kcal/mol
GTGATCACGTGATGGG	0.33 kcal/mol
GATAACACGTGTGTTT	-0.07 kcal/mol
AATATCACGTGTTCTT	0.1 kcal/mol
CGTTACACGTGGTATT	-0.03 kcal/mol
TAGTTCACGTGGGGGG	0.22 kcal/mol
ACTTGCACGTGTTCGT	0.09 kcal/mol
TATTACACGTGCGGTG	-0.06 kcal/mol
ATGAGCACGTGAGATG	0.17 kcal/mol
AGTTTCACGTGGCCGT	0.25 kcal/mol
TGAGGCACGTGATGTG	-0.01 kcal/mol
AGGGACACGTGCTGTA	-0.13 kcal/mol
AGTTTCACGTGTGTAA	0.33 kcal/mol
GCTGGCACGTGGGTGT	-0.16 kcal/mol
CTTGTCACGTGTGCTA	0.16 kcal/mol
GCTGGCACGTGAGGGA	0.18 kcal/mol
GGTGACACGTGATTGT	0.28 kcal/mol
GGTTCCACGTGGGGAA	-0.16 kcal/mol
ATAGTCACGTGAGTGT	0.3 kcal/mol
TTCGTCACGTGAAGGA	0.24 kcal/mol
ATGAACACGTGTGTGA	-0.05 kcal/mol
AAGTGCACGTGAGGCG	0.15 kcal/mol
GAAGGCACGTGCTGGG	-0.24 kcal/mol
